Assay [1] addresses T1, His-tagged Ku80 (full length, N-terminal hexa-histidine tag, in biotinylated bacterial lysate) (human, UniProt P13010, biotinylated (crude lysate biotinylated at low levels; sites not given)).
T1 construct: Expressed at low levels in E. coli BL21 pLysS; used as crude, biotinylated soluble lysate; also called His-Ku80; full-length Ku80; not shown: N-terminal hexa-Histidine tag and vector residues from pET30a
Kind of assay: GST pull-down from biotinylated E. coli lysate containing His-Ku80; streptavidin-HRP blot. Here is the method: (§1) Approximately 1 mg of biotinylated bacterial extract (containing His-Ku70 or His-Ku80) was diluted 2-fold in buffer (50 mM Tris pH 8.0, 250 mM NaCl, 0.1% β-mercaptoethanol, 0.1% Triton X-100, Boehringer Complete Protease Inhibitors) and incubated for 3 hours at 4° C. with 1–2 ug of GST-Ku80, GST-Ku70, or deletion derivative thereof, immobilised on beads. The beads were washed seven times in NETN buffer (180 mM NaCl, 25 mM EDTA, 20 mM Tris pH 8.0, 0.5% NP-40), boiled in SDS gel-loading buffer and half the sample subjected to polyacrylamide gel electrophoresis. Proteins were subsequently transferred to nitrocellulose membrane. Membranes were probed with streptavidin conjugated to horseradish peroxidase (GiboBRL), and visualised by ECL (Pierce) and exposure to film.
(§2) Analysis of Interactions Between Bacterially-expressed Ku70 and Ku80 Deletion Derivatives In a complementary approach to the yeast 2-hybrid technique, the inventors used a "pull-down" assay to detect interactions between recombinant deletion derivatives of the two Ku subunits. To first establish the utility of this approach, they assayed for interaction between full-length Ku70 and Ku80 in this system. […] Interacting proteins were detected by probing these western blots with streptavidin that was conjugated to horse radish peroxidase (HRP). […]

In assay [2] the target is T2, His-tagged Ku70 (full length, N-terminal hexa-histidine tag, in biotinylated bacterial lysate) (human, UniProt P12956, biotinylated (crude lysate biotinylated at low levels; sites not given)).
T2 construct: Expressed at low levels in E. coli BL21 pLysS; used as crude, biotinylated soluble lysate; also called His-Ku70; full-length Ku70; not shown: N-terminal hexa-Histidine tag and vector residues from pET30a
Kind of assay: GST pull-down from biotinylated E. coli lysate containing His-Ku70; streptavidin-HRP blot. Here is the method:
as §1, §2

Assay [3] has as its target T3, DNA-dependent protein kinase catalytic subunit (DNA-PKcs), human, from HeLa cell nuclear extract (human, UniProt P78527).
T3 construct: mature; Used either within crude HeLa nuclear extract or as an essentially homogeneous preparation (about 1 Ku per 840 DNA-PKcs molecules); also called purified DNA-PKcs; homogeneous DNA-PKcs
Description: GST pull-down of homogeneous DNA-PKcs, silver stain.

T1 sequence (P13010 2-732): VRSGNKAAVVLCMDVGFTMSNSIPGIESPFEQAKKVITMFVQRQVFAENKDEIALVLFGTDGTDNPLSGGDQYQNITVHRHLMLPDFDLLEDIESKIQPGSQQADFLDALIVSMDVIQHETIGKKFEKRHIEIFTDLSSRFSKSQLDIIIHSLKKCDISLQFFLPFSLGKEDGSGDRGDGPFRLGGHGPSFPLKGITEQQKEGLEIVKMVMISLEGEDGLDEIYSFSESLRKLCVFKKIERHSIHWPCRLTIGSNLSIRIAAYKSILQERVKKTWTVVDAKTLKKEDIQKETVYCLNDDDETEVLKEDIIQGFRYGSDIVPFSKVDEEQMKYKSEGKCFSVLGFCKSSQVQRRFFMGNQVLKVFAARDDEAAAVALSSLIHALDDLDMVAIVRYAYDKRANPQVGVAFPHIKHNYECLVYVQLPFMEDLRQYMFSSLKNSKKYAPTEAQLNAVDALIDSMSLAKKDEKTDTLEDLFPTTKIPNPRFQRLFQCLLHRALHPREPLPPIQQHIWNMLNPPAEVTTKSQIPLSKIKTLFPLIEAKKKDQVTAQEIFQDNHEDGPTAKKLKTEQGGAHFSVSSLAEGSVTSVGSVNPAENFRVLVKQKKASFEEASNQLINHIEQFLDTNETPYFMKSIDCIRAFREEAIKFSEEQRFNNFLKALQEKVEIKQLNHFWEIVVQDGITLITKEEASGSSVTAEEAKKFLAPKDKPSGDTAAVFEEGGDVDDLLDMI
T3 sequence (P78527 whole entry): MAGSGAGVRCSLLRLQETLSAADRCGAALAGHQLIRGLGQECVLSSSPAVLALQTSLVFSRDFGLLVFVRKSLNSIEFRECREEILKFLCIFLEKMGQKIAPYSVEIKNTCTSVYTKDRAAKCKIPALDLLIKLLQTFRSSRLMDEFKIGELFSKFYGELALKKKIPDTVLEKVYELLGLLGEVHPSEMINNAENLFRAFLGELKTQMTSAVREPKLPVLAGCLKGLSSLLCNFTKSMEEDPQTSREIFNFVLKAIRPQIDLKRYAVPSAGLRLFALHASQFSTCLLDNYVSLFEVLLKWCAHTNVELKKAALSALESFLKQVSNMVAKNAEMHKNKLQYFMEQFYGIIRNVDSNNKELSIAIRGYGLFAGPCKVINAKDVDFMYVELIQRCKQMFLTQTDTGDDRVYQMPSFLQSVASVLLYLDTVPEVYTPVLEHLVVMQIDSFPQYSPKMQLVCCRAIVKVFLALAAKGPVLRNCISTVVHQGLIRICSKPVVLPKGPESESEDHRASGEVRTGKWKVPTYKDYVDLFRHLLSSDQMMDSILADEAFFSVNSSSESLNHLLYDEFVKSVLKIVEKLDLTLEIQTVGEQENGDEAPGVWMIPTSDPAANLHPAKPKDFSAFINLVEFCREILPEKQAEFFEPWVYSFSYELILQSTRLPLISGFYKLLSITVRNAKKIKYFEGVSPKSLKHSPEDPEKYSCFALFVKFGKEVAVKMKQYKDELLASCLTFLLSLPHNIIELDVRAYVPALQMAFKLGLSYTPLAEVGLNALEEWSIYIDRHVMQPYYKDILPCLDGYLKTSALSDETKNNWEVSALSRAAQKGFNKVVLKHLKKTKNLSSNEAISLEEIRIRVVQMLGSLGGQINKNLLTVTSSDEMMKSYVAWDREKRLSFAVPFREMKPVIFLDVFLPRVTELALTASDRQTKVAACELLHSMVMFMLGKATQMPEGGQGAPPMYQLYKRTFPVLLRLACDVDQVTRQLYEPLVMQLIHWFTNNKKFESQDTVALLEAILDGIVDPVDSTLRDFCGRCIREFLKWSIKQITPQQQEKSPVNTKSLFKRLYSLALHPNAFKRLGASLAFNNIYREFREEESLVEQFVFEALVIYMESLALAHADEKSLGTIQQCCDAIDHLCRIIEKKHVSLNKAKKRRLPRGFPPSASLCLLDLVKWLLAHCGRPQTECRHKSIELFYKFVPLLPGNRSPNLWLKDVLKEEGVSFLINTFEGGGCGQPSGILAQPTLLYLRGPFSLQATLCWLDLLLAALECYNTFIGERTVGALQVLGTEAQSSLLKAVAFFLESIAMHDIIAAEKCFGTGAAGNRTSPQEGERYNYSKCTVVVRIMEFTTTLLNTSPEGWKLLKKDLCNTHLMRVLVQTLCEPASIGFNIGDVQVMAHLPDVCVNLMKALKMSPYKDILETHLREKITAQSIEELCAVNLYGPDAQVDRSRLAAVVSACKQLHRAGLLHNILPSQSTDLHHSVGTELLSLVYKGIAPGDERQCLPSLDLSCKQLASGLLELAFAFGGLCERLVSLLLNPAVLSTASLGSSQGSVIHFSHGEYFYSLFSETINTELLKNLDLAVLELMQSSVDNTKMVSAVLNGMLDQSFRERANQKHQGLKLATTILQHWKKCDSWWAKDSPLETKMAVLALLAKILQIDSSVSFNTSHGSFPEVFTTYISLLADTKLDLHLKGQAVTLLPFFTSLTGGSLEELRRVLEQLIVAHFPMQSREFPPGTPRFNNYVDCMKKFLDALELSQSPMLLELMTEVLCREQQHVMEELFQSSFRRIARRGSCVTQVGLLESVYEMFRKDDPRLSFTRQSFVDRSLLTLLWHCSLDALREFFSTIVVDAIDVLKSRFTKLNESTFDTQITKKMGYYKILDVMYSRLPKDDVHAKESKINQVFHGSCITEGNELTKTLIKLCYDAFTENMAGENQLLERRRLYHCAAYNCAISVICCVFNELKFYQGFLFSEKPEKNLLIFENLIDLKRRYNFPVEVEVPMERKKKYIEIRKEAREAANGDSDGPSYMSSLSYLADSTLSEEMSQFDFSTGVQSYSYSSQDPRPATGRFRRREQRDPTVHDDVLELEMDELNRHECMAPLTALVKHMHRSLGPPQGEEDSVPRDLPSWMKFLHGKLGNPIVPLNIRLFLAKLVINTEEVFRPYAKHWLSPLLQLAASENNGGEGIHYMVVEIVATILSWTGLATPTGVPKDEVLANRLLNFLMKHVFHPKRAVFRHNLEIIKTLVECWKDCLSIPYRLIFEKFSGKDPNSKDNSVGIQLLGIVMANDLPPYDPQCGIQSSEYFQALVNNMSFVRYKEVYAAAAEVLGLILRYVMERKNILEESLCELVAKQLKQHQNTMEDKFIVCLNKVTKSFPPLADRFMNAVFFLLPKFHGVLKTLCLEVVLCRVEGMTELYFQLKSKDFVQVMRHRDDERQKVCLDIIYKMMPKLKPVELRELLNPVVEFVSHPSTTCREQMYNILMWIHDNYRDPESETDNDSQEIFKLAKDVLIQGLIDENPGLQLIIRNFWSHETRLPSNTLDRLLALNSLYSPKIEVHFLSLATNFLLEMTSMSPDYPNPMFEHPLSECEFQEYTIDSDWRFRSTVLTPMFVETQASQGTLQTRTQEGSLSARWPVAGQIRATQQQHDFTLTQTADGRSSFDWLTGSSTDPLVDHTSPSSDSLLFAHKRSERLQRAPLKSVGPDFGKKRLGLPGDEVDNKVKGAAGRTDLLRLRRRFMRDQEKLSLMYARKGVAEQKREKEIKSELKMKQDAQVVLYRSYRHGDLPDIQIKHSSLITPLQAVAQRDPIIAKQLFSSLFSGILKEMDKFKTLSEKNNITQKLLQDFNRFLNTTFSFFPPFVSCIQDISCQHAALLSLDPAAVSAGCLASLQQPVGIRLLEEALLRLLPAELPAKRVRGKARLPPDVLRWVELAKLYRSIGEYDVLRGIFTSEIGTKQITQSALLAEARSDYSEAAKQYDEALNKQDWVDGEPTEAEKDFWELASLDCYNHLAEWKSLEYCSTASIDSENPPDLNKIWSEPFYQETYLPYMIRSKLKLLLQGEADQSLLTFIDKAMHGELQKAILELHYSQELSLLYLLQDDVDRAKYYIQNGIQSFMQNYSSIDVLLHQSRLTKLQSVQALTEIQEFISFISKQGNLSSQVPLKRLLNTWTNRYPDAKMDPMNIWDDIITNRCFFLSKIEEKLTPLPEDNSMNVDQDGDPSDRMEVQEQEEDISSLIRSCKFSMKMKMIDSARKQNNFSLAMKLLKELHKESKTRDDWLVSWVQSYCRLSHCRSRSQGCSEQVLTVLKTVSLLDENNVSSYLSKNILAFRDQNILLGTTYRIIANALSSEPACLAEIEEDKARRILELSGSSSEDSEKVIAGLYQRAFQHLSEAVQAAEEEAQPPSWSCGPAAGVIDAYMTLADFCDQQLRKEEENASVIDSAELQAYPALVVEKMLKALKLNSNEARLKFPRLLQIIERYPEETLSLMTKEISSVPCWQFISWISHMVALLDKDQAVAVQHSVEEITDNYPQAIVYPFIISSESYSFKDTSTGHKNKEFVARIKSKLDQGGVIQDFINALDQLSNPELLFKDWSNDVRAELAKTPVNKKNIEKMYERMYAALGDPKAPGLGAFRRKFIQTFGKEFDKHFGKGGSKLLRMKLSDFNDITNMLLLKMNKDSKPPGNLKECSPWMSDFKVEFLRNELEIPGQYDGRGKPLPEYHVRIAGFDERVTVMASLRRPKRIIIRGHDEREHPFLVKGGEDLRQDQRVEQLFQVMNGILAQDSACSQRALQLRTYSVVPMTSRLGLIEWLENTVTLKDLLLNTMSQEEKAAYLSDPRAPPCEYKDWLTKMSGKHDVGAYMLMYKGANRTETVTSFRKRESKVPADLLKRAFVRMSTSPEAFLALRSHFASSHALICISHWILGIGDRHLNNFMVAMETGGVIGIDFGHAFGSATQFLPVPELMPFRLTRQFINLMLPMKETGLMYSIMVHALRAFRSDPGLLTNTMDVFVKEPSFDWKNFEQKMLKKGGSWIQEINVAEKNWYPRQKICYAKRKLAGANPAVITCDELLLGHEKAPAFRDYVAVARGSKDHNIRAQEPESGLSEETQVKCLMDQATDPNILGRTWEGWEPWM

B1: GST alone (other)
chain: not shown
notes: Control protein on glutathione agarose beads; also called beads containing only GST
As to B1, the binding result in assay [1] is given as “no binding”; in assay [2], “no binding”; in assay [3], “no binding (tested: 50 mM to 150 mM KCl)”.

The record behind these values is patent US6753151 (KUDOS PHARMACEUTICALS, dated 2004).
